Laboratory results taken from publication PMC4398442.
Numbering of substitutions follows the chain as printed. No constants are given. Whether binding was seen depends on the method and setting. For some assays here: In cells and extracts the contact can be indirect. Some results given as binding are weak or reduced against the parent protein; the word gives no strength. For some assays here: Sequences can lack the tags named with a protein. Each block holds one binder with its values, some of them ahead of it.

By UniProt entry, the sequences of proteins in these tests, tags left out.
UniProt Q9UNF0: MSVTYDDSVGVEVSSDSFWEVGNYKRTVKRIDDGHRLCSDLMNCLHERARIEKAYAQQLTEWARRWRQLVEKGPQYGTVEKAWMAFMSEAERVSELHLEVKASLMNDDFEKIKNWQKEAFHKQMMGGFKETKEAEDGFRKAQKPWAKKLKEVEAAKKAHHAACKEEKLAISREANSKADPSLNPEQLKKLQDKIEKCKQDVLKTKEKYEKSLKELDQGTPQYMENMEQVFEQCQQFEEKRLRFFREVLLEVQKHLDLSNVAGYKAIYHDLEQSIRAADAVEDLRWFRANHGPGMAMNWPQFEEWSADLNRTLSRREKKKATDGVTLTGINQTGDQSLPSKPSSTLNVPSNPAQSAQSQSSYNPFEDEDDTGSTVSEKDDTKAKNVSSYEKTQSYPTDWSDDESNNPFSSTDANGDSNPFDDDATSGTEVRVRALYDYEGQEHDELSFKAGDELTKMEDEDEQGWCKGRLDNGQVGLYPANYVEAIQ
UniProt Q8N3F8: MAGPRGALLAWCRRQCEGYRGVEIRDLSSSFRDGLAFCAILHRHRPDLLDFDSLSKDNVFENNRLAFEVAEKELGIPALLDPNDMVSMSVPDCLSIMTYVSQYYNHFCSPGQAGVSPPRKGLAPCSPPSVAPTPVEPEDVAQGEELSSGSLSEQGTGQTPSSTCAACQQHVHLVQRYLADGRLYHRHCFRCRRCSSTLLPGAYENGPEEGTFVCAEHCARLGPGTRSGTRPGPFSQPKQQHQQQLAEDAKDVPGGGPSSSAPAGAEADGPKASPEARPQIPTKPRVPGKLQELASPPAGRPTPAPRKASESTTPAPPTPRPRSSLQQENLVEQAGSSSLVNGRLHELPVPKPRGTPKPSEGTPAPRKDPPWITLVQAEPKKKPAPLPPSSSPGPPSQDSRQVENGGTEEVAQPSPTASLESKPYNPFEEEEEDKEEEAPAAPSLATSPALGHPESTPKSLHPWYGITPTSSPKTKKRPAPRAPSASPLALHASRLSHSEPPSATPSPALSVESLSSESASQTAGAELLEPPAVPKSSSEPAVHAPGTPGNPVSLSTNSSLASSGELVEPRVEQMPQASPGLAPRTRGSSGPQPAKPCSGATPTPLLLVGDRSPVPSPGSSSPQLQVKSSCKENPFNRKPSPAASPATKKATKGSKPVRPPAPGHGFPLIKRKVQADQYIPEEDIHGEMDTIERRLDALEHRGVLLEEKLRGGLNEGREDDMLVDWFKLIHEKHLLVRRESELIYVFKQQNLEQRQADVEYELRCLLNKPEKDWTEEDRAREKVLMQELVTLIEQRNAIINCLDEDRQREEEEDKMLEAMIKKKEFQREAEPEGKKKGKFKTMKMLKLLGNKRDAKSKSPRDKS

Assays:
EHD4 (wt) = molecular target: T1, EHD4 (wt) (UniProt Q9H223); experiment: two-hybrid; S. cerevisiae AH109 co-transformed with Gal4bd and Gal4ad fusions; growth on plates lacking histidine (-HIS) against non-selective (+HIS) plates, 30°C
T1 sequence: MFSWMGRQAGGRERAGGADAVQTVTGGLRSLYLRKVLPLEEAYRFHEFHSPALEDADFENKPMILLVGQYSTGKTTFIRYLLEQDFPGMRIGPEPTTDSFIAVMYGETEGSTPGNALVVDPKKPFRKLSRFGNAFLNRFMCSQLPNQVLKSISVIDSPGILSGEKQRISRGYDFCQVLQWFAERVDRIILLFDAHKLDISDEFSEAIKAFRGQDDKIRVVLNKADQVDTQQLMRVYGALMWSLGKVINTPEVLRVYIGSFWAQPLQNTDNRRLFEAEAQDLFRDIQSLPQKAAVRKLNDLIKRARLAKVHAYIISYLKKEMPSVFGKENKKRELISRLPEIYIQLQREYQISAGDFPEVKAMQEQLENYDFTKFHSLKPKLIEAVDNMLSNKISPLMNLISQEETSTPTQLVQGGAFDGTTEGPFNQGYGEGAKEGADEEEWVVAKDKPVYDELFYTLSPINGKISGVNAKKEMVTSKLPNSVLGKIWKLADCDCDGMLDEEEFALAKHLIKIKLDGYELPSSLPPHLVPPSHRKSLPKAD

EHD1 (wt) = EHD1 (wt) (UniProt Q9H4M9); experiment: as above
EHD3 (wt) = molecular target: T2, EHD3 (wt) (UniProt Q9NZN3); experiment: as above
T2 sequence: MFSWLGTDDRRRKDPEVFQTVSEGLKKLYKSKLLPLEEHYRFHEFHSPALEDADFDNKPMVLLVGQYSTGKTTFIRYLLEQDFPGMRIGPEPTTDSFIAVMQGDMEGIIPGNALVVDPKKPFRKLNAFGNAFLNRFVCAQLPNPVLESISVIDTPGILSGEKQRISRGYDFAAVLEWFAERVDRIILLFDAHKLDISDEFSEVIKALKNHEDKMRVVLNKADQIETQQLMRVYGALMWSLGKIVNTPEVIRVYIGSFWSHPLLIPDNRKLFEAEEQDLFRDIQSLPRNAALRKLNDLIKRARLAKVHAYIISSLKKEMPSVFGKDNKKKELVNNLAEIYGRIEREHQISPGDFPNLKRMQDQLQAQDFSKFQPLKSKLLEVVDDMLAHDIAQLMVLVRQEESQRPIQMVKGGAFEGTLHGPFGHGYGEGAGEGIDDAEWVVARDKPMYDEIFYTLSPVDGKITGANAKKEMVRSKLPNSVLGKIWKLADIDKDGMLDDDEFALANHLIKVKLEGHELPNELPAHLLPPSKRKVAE

Syndapin2 = Syndapin2 (UniProt Q9UNF0); experiment: as above
MICAL-L1 = MICAL-L1 (UniProt Q8N3F8); experiment: as above
EHD2 (wt) = molecular target: T3, EHD2 (wt) (UniProt Q9NZN4); experiment: as above
T3 sequence: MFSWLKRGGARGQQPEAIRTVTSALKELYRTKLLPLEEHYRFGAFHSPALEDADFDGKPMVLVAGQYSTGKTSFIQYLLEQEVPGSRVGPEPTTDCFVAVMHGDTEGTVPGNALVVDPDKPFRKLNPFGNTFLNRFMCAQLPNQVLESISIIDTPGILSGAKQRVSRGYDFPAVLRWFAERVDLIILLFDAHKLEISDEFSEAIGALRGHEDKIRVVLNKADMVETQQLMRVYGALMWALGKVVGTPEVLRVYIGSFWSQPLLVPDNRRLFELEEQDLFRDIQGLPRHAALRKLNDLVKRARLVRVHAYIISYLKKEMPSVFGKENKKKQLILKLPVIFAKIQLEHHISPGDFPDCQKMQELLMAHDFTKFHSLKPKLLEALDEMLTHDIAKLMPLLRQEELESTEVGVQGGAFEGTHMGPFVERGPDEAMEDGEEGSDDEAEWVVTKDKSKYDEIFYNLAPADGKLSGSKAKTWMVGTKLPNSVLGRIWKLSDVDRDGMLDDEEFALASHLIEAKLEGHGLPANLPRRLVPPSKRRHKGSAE

[1] = molecular target: Syndapin2 (in HeLa lysate) (human (endogenous in HeLa)) (UniProt Q9UNF0); experiment: co-IP; HeLa cells transfected with GFP-Myc-EHD2 or mutants, lysed 24 h later; immunoprecipitation with antibodies against Syndapin2, immunoblot with anti-EHD2 antibodies
EHD1 (wt), Q9H4M9 = molecular target: T4, EHD1 (wt), Q9H4M9; experiment: two-hybrid; S. cerevisiae AH109 co-transformed with Gal4bd and Gal4ad fusions; growth on plates lacking histidine (-HIS) against non-selective (+HIS) plates, 30°C; details: remark: other sources report otherwise
T4 chain: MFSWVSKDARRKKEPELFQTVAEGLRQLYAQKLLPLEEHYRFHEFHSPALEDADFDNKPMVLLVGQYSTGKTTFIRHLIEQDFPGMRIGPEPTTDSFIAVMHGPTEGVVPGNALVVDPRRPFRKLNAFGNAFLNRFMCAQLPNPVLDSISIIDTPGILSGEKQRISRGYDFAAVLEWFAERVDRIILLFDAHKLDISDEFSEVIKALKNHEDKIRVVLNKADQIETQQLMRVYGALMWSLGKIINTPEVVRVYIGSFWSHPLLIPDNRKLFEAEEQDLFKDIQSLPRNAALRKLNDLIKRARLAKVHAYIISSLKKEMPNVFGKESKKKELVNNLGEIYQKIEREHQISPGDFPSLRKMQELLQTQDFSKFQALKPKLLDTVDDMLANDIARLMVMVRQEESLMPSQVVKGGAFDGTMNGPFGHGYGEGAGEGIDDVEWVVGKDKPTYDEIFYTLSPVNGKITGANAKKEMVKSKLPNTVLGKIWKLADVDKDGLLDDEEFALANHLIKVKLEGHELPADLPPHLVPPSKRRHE

binding (EHD4 (wt)): binds
binding (EHD1 (wt)): binds
binding (EHD3 (wt)): binds
binding (Syndapin2): binds
binding (MICAL-L1): binds
B1: EHD1 (wt) (protein, UniProt Q9H4M9 1-534)
chain: T4 chain

binding (EHD4 (wt)): no binding
binding (EHD3 (wt)): no binding
binding (Syndapin2): binds
binding (MICAL-L1): no binding
binding (EHD2 (wt)): binds
B2: EHD2 (wt) (protein, UniProt Q9NZN4 1-543)
chain: T3 sequence

binding (Syndapin2): no binding
binding (EHD2 (wt)): no binding
B3: EHD2 NPF-to-NFP (protein, UniProt Q9NZN4 1-543)
chain: T3 sequence with P127F, F128P

binding (Syndapin2): binds
binding (EHD2 (wt)): binds
B4: EHD2 (KPF-to-APA) (protein, UniProt Q9NZN4 1-543)
chain: T3 sequence with K120A, F122A

binding (Syndapin2): binds
binding (EHD2 (wt)): binds
B5: EHD2 (NPF-to-NPA) (protein, UniProt Q9NZN4 1-543)
chain: T3 sequence with F128A

binding (Syndapin2): binds
binding (EHD2 (wt)): binds
B6: EHD2 NPF-to-NPY (protein, UniProt Q9NZN4 1-543)
chain: T3 sequence with F128Y

binding (Syndapin2): binds
binding (EHD2 (wt)): binds
B7: EHD2 (NPF-to-APA) (protein, UniProt Q9NZN4 1-543)
chain: T3 sequence with N126A, F128A

binding [1]: binds
B8: GFP-Myc-EHD2 (protein, UniProt Q9NZN4 1-543)
chain: T3 sequence

binding (Syndapin2): binds
binding (EHD2 (wt)): binds
B9: EHD2 (KPF-to-KAF) (protein, UniProt Q9NZN4 1-543)
chain: T3 sequence with P121A

binding (EHD1 (wt), Q9H4M9): no binding
B10: EHD2 (wt), Q9NZN4 1-543 (protein)
chain: T3 sequence

binding (Syndapin2): no binding
binding (EHD2 (wt)): no binding
B11: EHD2 (NPF-to-NAF) (protein, UniProt Q9NZN4 1-543)
chain: T3 sequence with P127A
